Measured values published in PubChem BioAssay AID1963576 (National Center for Advancing Translational Sciences (NCATS), 2024).
About 60 (0.1%) of roughly 46,000 compounds were called active. About 3% were inconclusive and are not listed. Calls follow the shape of the dose curve; as a rule, active = well fitted inhibition curve with a large enough effect; inconclusive = small, poorly fitted or top-dose-only effect; inactive = no such curve, though single readings can be large or run the other way. The list shows a part of the results.

Assay: Primary qHTS assay for Inhibitors of ovarian cancer metastasis using an organotypic tumor microenvironment (TME) model. Also: nearly all actives have a fitted effect of over 65% in size.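 As to activity change, negative = inhibition: plate controls were DMSO wells for no effect and tomatine positive control wells for full effect.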
Settings: SKOV3ip1-GFP adhesion/invasion on 3D omental model, fluorescence; series mostly up to 45.8 µM; activity change, negative = inhibition: at the top concentration
How it was run: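 Primary human omental fibroblast/mesothelial 3D culture pre-formed 48 h. SKOV3ip1-GFP cells added with compounds (0.36-46 umol/L), incubated 2 h RT/16 h 37 C, fixed; GFP cells quantified at 488/509 nm.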

Activity change, negative = inhibition, inactive:
Cc1cccc(N2CCN(C3(c4ccccc4)C(=O)c4ccccc4C3=O)CC2)c1C -10.4%, CC(C)CNc1nc(Oc2ccc(OCC(N)=O)nn2)nc(N2CCOCC2)n1 -14.1%, Cc1cccc(NS(=O)(=O)c2ccc(-n3cccn3)cc2)c1C 23.7%, Cc1nn(C)c2c1c(C(F)(F)F)cc(=O)n2Cc1cccc(Br)c1 -0.329%, O=C(CCc1nc2cccnc2n1Cc1cccs1)Nc1cccc(Cl)c1 -2.05%, COc1ccccc1CNC(=O)c1ccc2nc(-c3ccccc3)c(-c3ccccc3)nc2c1 -6.37%, CCn1cc(C(=O)NCc2ccc(C)cc2)c(=O)c2cc(S(=O)(=O)N3CCCCCC3)ccc21 5.17%, CCOc1ccc(CNC(=O)c2ccc(NC(=O)N3CCCCc4ccccc43)cc2)cc1OC 3.5%, CCOc1ccc(-n2c(-c3ccccc3)c(C)n3c4c(=O)n(C)c(=O)n(C)c4nc23)cc1 7.71%, Cc1cc(-c2nnc3n2CCCCC3)c(C)n1-c1ccccc1 10.3%, CCCCCOc1ccc(/C=C/C(=O)Nc2sc(C(C)=O)c(C)c2C(=O)OCC)cc1OC 20%, CCc1ccc(-n2c(=O)c3sc4ccccc4c3n(Cc3cccc(F)c3)c2=O)cc1 33.8%, CCOC(=O)N1CCc2c(sc(NCc3ccc(OC)c(OC)c3OC)c2C(=O)Nc2ccc(OC)cc2OC)C1 -1.03%, CCCC(=O)NCC(c1ccc2c(c1)OCO2)N1CCN(c2ccccc2)CC1 (stereo unspecified) 8.64%, CCCNC(=O)C1CCN(c2ncnc3c2nc2n3CCCCC2)CC1 1.02%, C=C1CCC2[C@](C)(CO)C(O)CC[C@]2(C)C1CC=C1C(=O)OCC1O (stereo partly specified) -6.01% [at 92.2 µM], Cc1oc(C)c2c(=O)cc(-c3ccc4c(c3)OCO4)cc(OC(=O)c3ccccc3Cl)c12 -9.45%, COC(=O)c1ccccc1NC(=O)CCC(=O)N1CCOc2ccccc21 -4.3%, COc1cc(Nc2ncc(F)c(Nc3ccc4c(n3)NC(=O)C(C)(C)O4)n2)cc(OC)c1OC 19.8%, COc1ccccc1Cn1ccn(Cc2c(F)cccc2Cl)c(=O)c1=O -3.58%, CCC(=O)Nc1ccc(S(=O)(=O)NCc2ccc3c(c2)CCN3C(=O)c2ccc(C)cc2)cc1 -9.96%, CCN(CC)C(=O)c1sc(NC(=O)C(C)Sc2nc(-c3ccccc3)cc(C(F)(F)F)n2)c(C(=O)OC)c1C (stereo unspecified) 7.12%, Nc1cc(=O)nc(SCC(=O)Nc2cccc(Cl)c2)n1CCc1ccccc1 0.873%

outcome, inactive:
Cn1cc(S(=O)(=O)N2CCCCCC2)cc1C(=O)NCc1ccccc1Cl, CCc1nnc(NC(=O)c2nc(SCc3ccccc3C)ncc2Cl)s1, Cc1c(Cl)cccc1NC(=O)Cn1c(=O)nc(-c2ccccc2)c2ccccc21
